Hit rate of the full screen: of about 110,000 compounds, about 230 (0.21%) showed an effect of 50% or more. This is one part of the list.
What follows are compounds tested against DPAP1 (Plasmodium falciparum, UniProt Q8IIJ9) (assay: primary screen, percent inhibition; read by cleavage of a fluorogenic dipeptide substrate; higher = more effect of the substance).
Design: species or system P. falciparum D10 trophozoite lysates; single well
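Also: 30 min substrate incubation versus DMSO and 10 µM JCP410 controls.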

Sequence of DPAP1 (Q8IIJ9 whole entry, looked up): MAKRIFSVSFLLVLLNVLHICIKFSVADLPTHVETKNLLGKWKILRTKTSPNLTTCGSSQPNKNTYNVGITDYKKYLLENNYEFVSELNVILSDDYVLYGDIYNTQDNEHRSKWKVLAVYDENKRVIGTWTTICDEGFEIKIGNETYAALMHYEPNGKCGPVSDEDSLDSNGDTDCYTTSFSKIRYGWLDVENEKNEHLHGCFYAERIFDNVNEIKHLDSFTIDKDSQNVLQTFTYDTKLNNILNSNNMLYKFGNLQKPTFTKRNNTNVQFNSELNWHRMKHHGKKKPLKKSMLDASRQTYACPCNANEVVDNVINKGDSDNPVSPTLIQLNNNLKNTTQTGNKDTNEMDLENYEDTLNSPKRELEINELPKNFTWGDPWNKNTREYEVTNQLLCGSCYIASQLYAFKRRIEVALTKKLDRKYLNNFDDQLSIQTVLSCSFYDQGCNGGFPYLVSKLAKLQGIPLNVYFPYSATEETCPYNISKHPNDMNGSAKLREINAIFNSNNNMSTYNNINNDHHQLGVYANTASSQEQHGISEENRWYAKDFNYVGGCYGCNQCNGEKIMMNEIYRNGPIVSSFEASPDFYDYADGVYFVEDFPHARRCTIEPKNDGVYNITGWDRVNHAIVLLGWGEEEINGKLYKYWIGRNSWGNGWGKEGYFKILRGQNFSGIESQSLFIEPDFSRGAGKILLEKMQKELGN

Row | Compound | % Inhibition @ 10 uM [%]
1 | O=C(Nc1cccc(O)c1)c1ccc(Oc2cccc(C(=O)Nc3cccc(O)c3)c2)cc1 | 10.3
2 | CC(C)(C)OC(=O)N1CCC(c2c(C(=O)N3CCOCC3)cnn2-c2cccc(Cl)c2)CC1 | 1.06
3 | O=C1CNC(c2ccccc2)c2cc(Br)ccc2N1 (centres unmarked) | 1.7
4 | Cc1sc(NC(=O)c2cccnc2)c(C(=O)c2ccc(Br)cc2)c1C | 4.11
5 | O=C(CC1(c2ccccc2)C(=O)c2ccccc2C1=O)Nc1ccccc1 | 0.132
6 | N#CCNC(=O)[C@H](CC1CCCCC1)NC(=O)c1cccc(C(=O)OCc2ccccc2)c1 | -1.83
7 | OCC1OC(Oc2cccc3ccccc23)C(O)C(O)C1O (centres unmarked) | -2.02
8 | COc1cc(OC)cc(C(=O)Nc2nc(-c3nnn(-c4cc(OC)ccc4OC)c3C)ns2)c1 | -9.88
9 | OCCN(CCO)Cc1ccc(F)cc1F | -0.0908
10 | Cc1cc(=O)n2nc(N3CCCC(C(=O)N4CCC(Cc5ccccc5)CC4)C3)sc2n1 (centres unmarked) | -0.281
11 | Cc1c(C(=O)N2CCOCC2)[nH]c2c1C(=O)CC(c1ccccc1Cl)C2 (centres unmarked) | -5.2
12 | Cc1ccc(OCC(O)CN(CCO)CCO)cc1 (centres unmarked) | -0.386
13 | CCOC(=O)N1CCN(C(=O)c2ccc(CN3CCc4ccccc4C3)cc2)CC1 | -0.0626
14 | CC(=O)C[C@H]1[C@](C)(OC(C)=O)CCC2C(C)(C)CCC[C@@]21C (some centres unmarked) | -1.85
15 | CCCCC(=O)NC1(C(F)(F)F)C(=O)N(Cc2ccco2)C(C)=C1C(C)=O (centres unmarked) | 2.31
16 | O=S(=O)(c1ccc(-c2csc(-c3ccccc3)n2)cc1)N1CCOCC1 | 3.66
17 | Cc1nc(Cl)c(C(=O)N(C)Cc2ccccc2)c(C)c1Cl | 3.49
18 | N=C1/C(=C\c2ccc(SCc3ccco3)o2)C(=O)N=C2SC(c3cccs3)=NN12 | 0.458
19 | CC1CCN(C(c2cccs2)c2ccc3cccnc3c2O)CC1 (centres unmarked) | -12
20 | O=C(Nc1ccc(Cl)c(C(=O)O)c1)NC1CCCCC1 | 3.56
21 | O=C(Cn1ncc2c1-c1ccccc1OC2)NCc1ccccc1Cl | 0.981
22 | O=C(CCC(=O)N1CCc2ccccc2C1)N1CC=C(c2c[nH]c3ccccc23)CC1 | -3.34
23 | CCC(=O)c1ccc2c(c1)OCCOCCOc1cc(C(=O)CC)ccc1OCCOCCO2 | -1.28
24 | O=C(Cn1nc(C(F)(F)F)cc1C1CC1)Nc1cnn(Cc2ccc(F)cc2)c1 | -4.72
25 | Cc1ccc(OCC(=O)N(Cc2nc(-c3ccc(C)cc3)no2)C(C)C)cc1 | 0.809
26 | Clc1ccc(CN2CCN(C/C=C/c3ccccc3)CC2)cc1Cl | 1.48
